Source: the supplement of paper PMC4967469
IC50 is the fitted dose that halves viability relative to control wells, and lower means more sensitive; where the fit passes the top or lowest dose, that dose stands as a limit. The AUC spans the tested range (256-fold, ending at the top dose) of the same fit; it is 1 without any effect and falls as sensitivity rises. For some of these results: A top dose marked as inferred was derived from the fitted curves, not read from the paper. For some of these results: An entry number marks a drug with two screens in the source, which often give different values.

Key:
Test in all cases: Viability of human cancer cell lines after 72 h of drug (GDSC screen)
Y-39983 = compound: C[C@@H](N)c1ccc(C(=O)Nc2ccnc3[nH]ccc23)cc1 [Y-39983]; details: top dose 20 µM; top dose inferred
Description: (§1)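 Human cancer cell lines in 384-well plates, medium with 10% serum, drug for 72 h over a 256-fold dose range (nine 2-fold or five 4-fold steps up to the top dose). Adherent lines were fixed and stained with the nucleic acid dye Syto60, suspension lines read with resazurin; signal relative to control wells, capped at 0 and 100%. One two-parameter sigmoid per drug and line, fitted in a mixed model over all curves with the slope shared within a line.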

TPCA-1 = compound: NC(=O)Nc1sc(-c2ccc(F)cc2)cc1C(N)=O [TPCA-1]; details: top dose 20 µM
Description: as §1

Epothilone B = compound: C/C(=C\c1csc(C)n1)[C@@H]1C[C@@H]2O[C@]2(C)CCC[C@H](C)[C@H](O)[C@@H](C)C(=O)C(C)(C)[C@@H](O)CC(=O)O1 [Epothilone B]; details: top dose 0.032 µM; top dose inferred
Description: as §1

PHA-793887 = compound: CC(C)CC(=O)Nc1n[nH]c2c1CN(C(=O)C1CCN(C)CC1)C2(C)C [PHA-793887]; details: top dose 10.24 µM
Description: as §1

PLX4720 = compound: CCCS(=O)(=O)Nc1ccc(F)c(C(=O)c2c[nH]c3ncc(Cl)cc23)c1F [PLX4720]; details: top dose 10 µM
Description: as §1

[1] = screen: GDSC drug entry 1371, top dose inferred

Cell Line | AUC (Y-39983) | IC50 (Y-39983) [µM] | AUC (TPCA-1) | IC50 (TPCA-1) [µM] | AUC (Epothilone B) | IC50 (Epothilone B) [µM] | AUC (PHA-793887) | IC50 (PHA-793887) [µM] | AUC (PLX4720; screen: GDSC drug entry 1036) | IC50 (PLX4720; screen: GDSC drug entry 1036) [µM] | AUC (PLX4720; [1]) | IC50 (PLX4720; [1]) [µM]
SKN-3 (head and neck, adherent) | 0.952 | > 20 | 0.893 | > 20 | 0.917 | > 0.032 | 0.892 | > 10.2 | 0.923 | > 10 | 0.981 | > 10
SN12C (kidney, adherent) | 0.98 | > 20 | 0.947 | > 20 | 0.723 |  | 0.986 | > 10.2 |  |  | 0.984 | > 10
SNG-M (endometrium, adherent) | 0.827 | 11.9 | 0.739 | 5.94 | 0.279 | 0.00048 | 0.614 | 1.31 | 0.84 | 6.7 | 0.875 | 9.5
SNU-182 (liver, adherent) | 0.934 | > 20 | 0.839 | 14.6 | 0.678 | 0.00646 | 0.962 | > 10.2 | 0.965 | > 10 | 0.947 | > 10
SNU-387 (liver, adherent) | 0.835 | 15.8 | 0.856 | 19.7 | 0.657 | 0.00584 | 0.916 | > 10.2 | 0.966 | > 10 | 0.982 | > 10
SNU-398 (liver, adherent) | 0.933 | > 20 | 0.761 | 7.35 | 0.136 | 0.000134 | 0.749 | 3.45 |  |  | 0.983 | > 10
SNU-423 (liver, adherent) | 0.772 | 9.06 | 0.849 | 19.1 | 0.406 | 0.00106 | 0.848 | 9.62 | 0.982 | > 10 | 0.972 | > 10
SNU-449 (liver, adherent) | 0.915 | > 20 | 0.782 | 9.17 | 0.462 | 0.00156 | 0.986 | > 10.2 | 0.946 | > 10 | 0.981 | > 10
SU8686 (pancreas, adherent) | 0.97 | > 20 | 0.967 | > 20 | 0.722 | 0.00929 | 0.734 | 3.27 | 0.983 | > 10 | 0.907 | > 10
SU-DHL-5 (B-cell lymphoma, suspension) | 0.462 | 1.01 | 0.546 | 1.62 | 0.362 | 0.000921 | 0.244 | 0.149 | 0.993 | > 10 | 0.9 | 7.14
SUIT-2 (pancreas, adherent) | 0.86 | 18.2 | 0.444 | 0.873 | 0.462 | 0.00157 | 0.947 | > 10.2 | 0.985 | > 10 | 0.985 | > 10
SW13 (adrenal gland, adherent) | 0.988 | > 20 | 0.988 | > 20 | 0.631 | 0.00461 | 0.988 | > 10.2 | 0.986 | > 10 | 0.977 | > 10
SW48 (large intestine, adherent) | 0.911 | > 20 | 0.82 | 11.4 | 0.644 | 0.00499 | 0.913 | > 10.2 | 0.986 | > 10 | 0.972 | > 10
SW156 (kidney, adherent) | 0.93 | > 20 | 0.897 | > 20 | 0.751 | 0.0116 | 0.984 | > 10.2 |  |  | 0.957 | > 10
SW620 (large intestine, adherent) | 0.958 | > 20 | 0.774 | 6.92 | 0.363 | 0.000879 | 0.613 | 1.26 | 0.99 | > 10 | 0.989 | > 10
SW626 (ovary, adherent) | 0.975 | > 20 | 0.857 | > 20 | 0.493 | 0.00191 | 0.785 | 5.26 | 0.983 | > 10 | 0.981 | > 10
SW756 (cervix, adherent) | 0.969 | > 20 | 0.973 | > 20 | 0.836 | 0.0271 | 0.978 | > 10.2 | 0.985 | > 10 | 0.983 | > 10
SW780 (bladder, adherent) | 0.983 | > 20 | 0.949 | > 20 | 0.986 | > 0.032 | 0.968 | > 10.2 | 0.967 | > 10 | 0.881 | > 10
SW837 (large intestine, adherent) | 0.982 | > 20 | 0.912 | > 20 | 0.512 | 0.00217 | 0.901 | > 10.2 |  |  | 0.98 | > 10
SW900 (lung squamous cell carcinoma, adherent) | 0.977 | > 20 | 0.93 | > 20 | 0.765 | 0.0135 | 0.95 | > 10.2 | 0.911 | > 10 | 0.982 | > 10
SW948 (large intestine, adherent) | 0.934 | > 20 | 0.903 | > 20 | 0.773 | 0.0188 | 0.982 | > 10.2 | 0.977 | > 10 | 0.967 | > 10
SW1088 (glioma, adherent) | 0.973 | > 20 | 0.945 | > 20 | 0.632 | 0.00519 | 0.982 | > 10.2 |  |  | 0.907 | > 10
SW1271 (small cell lung carcinoma, adherent) | 0.81 | 12.6 | 0.782 | 9.75 | 0.656 | 0.00584 | 0.849 | 9.57 | 0.931 | > 10 | 0.958 | > 10
